Measured values: article PMC10668032
Some of the results follow. At the low end of the ranking the order means little.

What follows are sequences tested against SIX1-Q177R homeodomain (UniProt Q15475) (assay: universal protein binding microarray). Conditions: Universal all-10-mer PBM (8x60K, AMADID 030236), 300 nM GST-tagged protein, Alexa Fluor 488 anti-GST; buffer, salt, pH and temperature not stated; high values mean tight binding; most listed sequences are background and not binding sites; double strand, one strand shown.

Sequence	binding signal [E-score]
CTCAGAAC	-0.166
CCCCCAGA	0.0771
ACTTGAGA	-0.159
ACGTCCCT	0.14
AAATCCGT	-0.0909
CATCATCA	-0.179
ACCCTACA	0.297
GGGCCCTA	-0.201
ACGGTTCC	-0.206
AGACCCGG	0.167
TCATCGGA	-0.0466
TACTGACA	0.22
AGAGTAAT	0.103
GACCCCTA	0.203
GCATTATA	-0.116
ATGTTCCG	-0.0878
ATCACAAG	-0.0887
AATGAGAA	-0.086
AGCTCCGG	-0.117
ACCATGCA	0.152
CGAGTGAC	0.0199
ATGGCTAG	-0.159
CTTATAAG	-0.102
CGGGTCAA	0.2
AGATGTCC	-0.233

Sequence	binding signal [E-score]
ATTTTGAC	0.105
GCTTCGCC	-0.283
CAGCCCCA	-0.215
CACTACCG	0.102
TACAAGCA	-0.0717
ATTCAAGA	-0.0473
GGGGCCCC	-0.205
ATTGCGCG	-0.044
AGAACCCT	0.0646
GACTCCTC	0.166
CCACTAGC	-0.116
ATAGCACA	0.0226
TCTCTGAA	-0.0891
AACCTCAT	-0.195
ACTAGCCC	0.113
CCCCGGTC	0.147
ATGCGCTG	-0.219
ACACGAGA	0.352
CCTCTCAG	-0.243
CCAGTGGG	0.224
GTCCACAA	-0.0944
CGTAGCTA	-0.173
ACTCCTCC	0.213
CAAATTAA	-0.0971
TAAAGAGA	-0.127

Sequence	binding signal [E-score]
GGACTAAA	-0.13
CATACGGC	0.0144
GTAATTCA	0.112
CGACGCAC	0.105
GTGACGCA	-0.114
ACCGGACT	0.0232
AGGAAATA	-0.143
AGGAATGA	-0.116
CCACGCTC	-0.06
ACTTGTTA	-0.129
AAGACAAT	-0.291
TATGTACA	0.13
ATTCCGGC	-0.166
ATCCTACC	0.102
GTAGACAC	0.409
GCTCGAAA	-0.364
GACAGTAC	0.0331
AGCCCACT	-0.0367
GCGGAACC	0.083
AGCGCTCG	-0.253
AAGACCCC	0.172
GCTATGCC	-0.328
AACTGATG	-0.147
GCTCGAAC	-0.0277
ACTACGCA	0.0386

Sequence	binding signal [E-score]
CGTCCTAA	-0.139
CCCTGAGA	-0.0852
GGTAGCAC	-0.00599
AACGCGTC	-0.0221
AGCCCCTA	-0.0779
ACAAGAAG	0.0731
AGTACACA	0.253
CCCGCAGG	0.0307
ATCCCCAT	0.0626
AGTTGCAG	0.0643
CGACCCGA	0.101
GTCTCCGA	-0.199
GTAAGAAC	-0.024
CCCCCGGC	0.21
CCGCATCG	0.0947
CTAGTGAA	-0.0296
CCCCGCAC	0.267
ACTAGGCT	-0.0202
CCGCATAA	0.0196
AGATTTAA	-0.172
AGCGAGGC	-0.252
CGCTGATC	-0.109
AGGTCCAT	-0.296
CATTGAGC	-0.129
AATCGAGC	-0.0449

Sequence	binding signal [E-score]
AGATCTGG	-0.113
ACCGGCCG	0.13
AGGGAACG	-0.213
ATCGACAG	-0.305
GCCGCAGA	-0.266
ACTGCGTG	0.29
AAGGGAGA	0.0086
CGTCTGAC	-0.0331
CCATCGGA	0.0432
AGTTTAAG	-0.0709
GGCGACTA	0.086
AATCCGGT	0.0398
CATTTGCA	-0.124
CAAGAGCA	0.0649
GCTCCCAC	-0.114
AAGAAATT	-0.283
AAAGAGCC	-0.124
GCGTAGAC	-0.158
AAACTGTT	-0.245
AAACGGGG	0.0429
AAACGCAT	-0.0952
ACCTTTCC	-0.00107
GATGCTGA	-0.198
CCACATCC	-0.0477
CTCCTAAA	0.0219

Sequence	binding signal [E-score]
CCGATTCA	-0.118
GAATCGCC	-0.216
ACCGGTCA	0.105
CTGATTCC	-0.118
ACTTTGAC	-0.0213
AACGTTAC	-0.156
CAGGAATA	-0.0771
CGGGGGTA	0.315
CCACTATA	0.129
CACTGGAA	0.152
ACTACTGG	0.0745
TGAGAGCA	-0.279
ACGAGACA	0.0301
ATATTATA	-0.12
ATATAGCG	-0.173
GCTGGCGA	-0.064
ACGTCAGA	0.0769
GTCGACTA	0.0268
CCTAATCC	-0.0723
GACAAGTC	-0.332
GAGGAGCC	-0.207
ACGCCGCC	0.153
GAAACGAA	-0.0693
CAGGTAGC	0.0255
AGGAGTTA	0.00882

Sequence	binding signal [E-score]
AGCATCGC	-0.296
AGCCTCAT	-0.0794
CAAACGTA	-0.0347
ACTCAAAG	-0.0176
GCCTATCC	-0.24
GAAGTTAA	0.0343
CACAACGG	0.0935
ATAGTCCC	-0.183
GATGTCAA	-0.133
ATTGGCTG	-0.228
ATAACCGC	-0.0892
GAGTTGCA	0.0815
CGCGACCA	-0.17
CGTTACAC	0.424
AACTCTAA	-0.0839
ACTCAATG	0.059
ACTCTATA	-0.0385
GCAATCGC	-0.101
GTCAAGTA	0.0362
CAATCAAA	-0.15
AGGGCCGG	-0.136
CGGAGCGC	-0.0175
